Drawing on paper PMC12820563, this text covers binding signal (RPM ratio (pull-down/input)) for 32 sequences.

This is one part of the list. The list includes weakly bound sequences.

The assay has as its target T1, MBP-FoxP3dN (UniProt Q99JB6).
T1 sequence: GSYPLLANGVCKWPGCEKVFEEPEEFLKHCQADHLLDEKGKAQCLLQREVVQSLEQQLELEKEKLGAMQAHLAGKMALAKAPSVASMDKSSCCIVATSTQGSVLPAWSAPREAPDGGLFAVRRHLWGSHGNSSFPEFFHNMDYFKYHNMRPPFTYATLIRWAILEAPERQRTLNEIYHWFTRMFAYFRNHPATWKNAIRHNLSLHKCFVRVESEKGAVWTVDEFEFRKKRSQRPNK
Briefly: PD-seq (MBP pull-down with sequencing). Particulars: 20 mM Tris-HCl pH 7.5, 100 mM NaCl, 1.5 mM MgCl2, 0.4 uM protein, 0.1 uM dsDNA library, 30 min, room temperature, amylose pull-down; high values mean tight binding; double strand, one strand shown.
For “GATGATTGTTCTCCCAGCTGATGAATTCAATGACTCGAGTAAACAAATTTTCCTAATCTTTCTGTTCAAGCGCCATCTAC”, the binding signal (RPM ratio (pull-down/input)) is 0.766.
In the case of “GATGATTGTTCTCCCAGCTGATGAATTCACCAGCTCGAGTAAACAAATTTTCCTAATCTTTCTGTTCAAGCGCCATCTAC”, the binding signal (RPM ratio (pull-down/input)) is 0.211.
As to “GATGATTGTTCTCCCAGCTGATGAATTTAGCAACTCGAGTAAACAAATTTTCCTAATCTTTCTGTTCAAGCGCCATCTAC”, the binding signal (RPM ratio (pull-down/input)) is 5.48.
The figure for “GATGATTGTTCTCCCAGCTGATGAATTCGTGATCTCGAGTAAACAAATTTTCCTAATCTTTCTGTTCAAGCGCCATCTAC” is 0.753; for “GATGATTGTTCTCCCAGCTGATGAATTATAGGTTTCGAGTAAACAAATTTTCCTAATCTTTCTGTTCAAGCGCCATCTAC” it is 0.547; for “GATGATTGTTCTCCCAGCTGATGAATTTGACTAATCGAGTAAACAAATTTTCCTAATCTTTCTGTTCAAGCGCCATCTAC” it is 0.313.
With “GATGATTGTTCTCCCAGCTGATGAATTTTTACGGTCGAGTAAACAAATTTTCCTAATCTTTCTGTTCAAGCGCCATCTAC” the figure was 0.208.
As to “GATGATTGTTCTCCCAGCTGATGAATTGAGACCTTCGAGTAAACAAATTTTCCTAATCTTTCTGTTCAAGCGCCATCTAC”, the binding signal (RPM ratio (pull-down/input)) was determined as 0.343.
With “GATGATTGTTCTCCCAGCTGATGAATTAATAGACTCGAGTAAACAAATTTTCCTAATCTTTCTGTTCAAGCGCCATCTAC” the figure was 0.38; with “GATGATTGTTCTCCCAGCTGATGAATTCACGGAATCGAGTAAACAAATTTTCCTAATCTTTCTGTTCAAGCGCCATCTAC”, 0.2; with “GATGATTGTTCTCCCAGCTGATGAATTGCGAGTCTCGAGTAAACAAATTTTCCTAATCTTTCTGTTCAAGCGCCATCTAC”, 1.52.
Consider “GATGATTGTTCTCCCAGCTGATGAATTGCACAGATCGAGTAAACAAATTTTCCTAATCTTTCTGTTCAAGCGCCATCTAC”, for which the binding signal (RPM ratio (pull-down/input)) was 0.519.
Consider “GATGATTGTTCTCCCAGCTGATGAATTTCCAGCTTCGAGTAAACAAATTTTCCTAATCTTTCTGTTCAAGCGCCATCTAC”, for which the binding signal (RPM ratio (pull-down/input)) came to 0.255.
As to “GATGATTGTTCTCCCAGCTGATGAATTTCGGGTATCGAGTAAACAAATTTTCCTAATCTTTCTGTTCAAGCGCCATCTAC”, the binding signal (RPM ratio (pull-down/input)) was determined as 0.571.
In the case of “GATGATTGTTCTCCCAGCTGATGAATTACCATCTTCGAGTAAACAAATTTTCCTAATCTTTCTGTTCAAGCGCCATCTAC”, the binding signal (RPM ratio (pull-down/input)) was determined as 0.5.
For the sequence “GATGATTGTTCTCCCAGCTGATGAATTTGAAGAGTCGAGTAAACAAATTTTCCTAATCTTTCTGTTCAAGCGCCATCTAC”, the binding signal (RPM ratio (pull-down/input)) was 0.213.
For the sequence “GATGATTGTTCTCCCAGCTGATGAATTGTCAACGTCGAGTAAACAAATTTTCCTAATCTTTCTGTTCAAGCGCCATCTAC”, the binding signal (RPM ratio (pull-down/input)) is 0.651.
With “GATGATTGTTCTCCCAGCTGATGAATTCAGTTATTCGAGTAAACAAATTTTCCTAATCTTTCTGTTCAAGCGCCATCTAC” the figure was 2.8.
The figure for “GATGATTGTTCTCCCAGCTGATGAATTTCGACGGTCGAGTAAACAAATTTTCCTAATCTTTCTGTTCAAGCGCCATCTAC” is 0.251.
As to “GATGATTGTTCTCCCAGCTGATGAATTTCGCGAGTCGAGTAAACAAATTTTCCTAATCTTTCTGTTCAAGCGCCATCTAC”, the binding signal (RPM ratio (pull-down/input)) amounted to 0.675.
As to “GATGATTGTTCTCCCAGCTGATGAATTTGGTGGCTCGAGTAAACAAATTTTCCTAATCTTTCTGTTCAAGCGCCATCTAC”, the binding signal (RPM ratio (pull-down/input)) amounted to 1.09.
Take “GATGATTGTTCTCCCAGCTGATGAATTGTATGAGTCGAGTAAACAAATTTTCCTAATCTTTCTGTTCAAGCGCCATCTAC”: the binding signal (RPM ratio (pull-down/input)) was 1.36.
For the sequence “GATGATTGTTCTCCCAGCTGATGAATTTTGTGAGTCGAGTAAACAAATTTTCCTAATCTTTCTGTTCAAGCGCCATCTAC”, the binding signal (RPM ratio (pull-down/input)) is 4.18.
Consider “GATGATTGTTCTCCCAGCTGATGAATTGTGAAACTCGAGTAAACAAATTTTCCTAATCTTTCTGTTCAAGCGCCATCTAC”, for which the binding signal (RPM ratio (pull-down/input)) was determined as 1.2.
For “GATGATTGTTCTCCCAGCTGATGAATTGTCTGACTCGAGTAAACAAATTTTCCTAATCTTTCTGTTCAAGCGCCATCTAC”, the binding signal (RPM ratio (pull-down/input)) was 0.285.
For the sequence “GATGATTGTTCTCCCAGCTGATGAATTCTGGGTTTCGAGTAAACAAATTTTCCTAATCTTTCTGTTCAAGCGCCATCTAC”, the binding signal (RPM ratio (pull-down/input)) came out at 0.611.
For “GATGATTGTTCTCCCAGCTGATGAATTAAGACACTCGAGTAAACAAATTTTCCTAATCTTTCTGTTCAAGCGCCATCTAC”, the binding signal (RPM ratio (pull-down/input)) was determined as 1.36.
With “GATGATTGTTCTCCCAGCTGATGAATTGAAGGGCTCGAGTAAACAAATTTTCCTAATCTTTCTGTTCAAGCGCCATCTAC” the figure was 0.213; with “GATGATTGTTCTCCCAGCTGATGAATTAGCAAGTTCGAGTAAACAAATTTTCCTAATCTTTCTGTTCAAGCGCCATCTAC”, 0.415.
Turning to “GATGATTGTTCTCCCAGCTGATGAATTAAAGGCGTCGAGTAAACAAATTTTCCTAATCTTTCTGTTCAAGCGCCATCTAC”, the binding signal (RPM ratio (pull-down/input)) worked out at 0.645.
Turning to “GATGATTGTTCTCCCAGCTGATGAATTAATGTAGTCGAGTAAACAAATTTTCCTAATCTTTCTGTTCAAGCGCCATCTAC”, the binding signal (RPM ratio (pull-down/input)) came to 0.915.
“GATGATTGTTCTCCCAGCTGATGAATTTGGGCTGTCGAGTAAACAAATTTTCCTAATCTTTCTGTTCAAGCGCCATCTAC”: the binding signal (RPM ratio (pull-down/input)) was 0.46.
